Hit rate of the full screen: of about 91,000 compounds, about 130 (0.14%) were called active. The shares of active, inactive and inconclusive entries below differ from those in the screen. Calls follow the shape of the dose curve; as a rule, active = well fitted inhibition curve with a large enough effect; inconclusive = small, poorly fitted or top-dose-only effect; inactive = flat fitted curve, though single readings scatter. Where the call is inconclusive, the potency comes from a doubtful curve fit.
Test system: Uracil-DNA glycosylase
Assay: Primary qHTS assay for inhibitors of Activation Induced Cytidine Deaminase (AID): UDG Counterscreen signal; also: nearly all actives have a fitted effect of over 65% in size
Conditions: FRET deamination/UDG coupled assay, UDG read, 4 h; activity change, negative = inhibition: at 115 µM (top of the series)
% is scaled to controls: 0 for no effect and ±100 for the full control effect; potency is read from the fitted curve at half-maximal effect; tags tell the direction and shape of the fitted curve.

| Structure (SMILES) | Potency | activity change, negative = inhibition |
| --- | --- | --- |
| CCOC(=O)c1c(-c2ccccc2)oc2ccc(N(C(C)=O)S(=O)(=O)c3ccc(C)cc3)cc12 | inconclusive: 100 µM [inhibitor, single point] |  |
| Cc1ccc(-n2nc(C(=O)N3CCN(c4cccc(C(F)(F)F)c4)CC3)c3c4ccccc4n(C)c3c2=O)cc1 | inconclusive: 89.1 µM [inhibitor, single point] |  |
| CCOc1cc(C2c3c(oc4ccccc4c3=O)C(=O)N2c2ccccn2)ccc1O (stereo unspecified) | inconclusive: 28.2 µM [inhibitor, single point] |  |
| CC(C)N1CCc2c(sc(NC(=O)c3ccco3)c2-c2nc3ccccc3s2)C1 |  | inactive: -3.61% |
| O=C(COC(=O)C1(c2ccc(F)cc2)CCCC1)Nc1cc([N+](=O)[O-])ccc1F |  | inactive: 2.05% |
| Cc1ccccc1CNC(=O)Cn1cc2c(n1)-c1c(oc(C(=O)N3CCCC3)c1C)CC2 | inconclusive: 39.8 µM [inhibitor, full curve, poor fit] |  |
| CCCOc1ccc(CNC(=O)Cn2c(=O)oc3ccccc32)cc1 | inconclusive: 89.1 µM [inhibitor, single point] |  |
| CCOc1ccc(NC(=O)c2noc3c2CSc2ccccc2-3)cc1 |  | inactive: 1.47% [at 57.5 µM] |
| O=C1CC(c2cccc(F)c2)c2c(n3ncnc3[nH]c2=O)N1 (stereo unspecified) |  | inactive: 0.945% |
| Cc1ccc(NC(=O)CCc2ncc(-c3c(F)cccc3F)o2)c(O)c1 |  | inactive: 1.28% |
| COC(=O)c1c(NC(=O)COc2ccccc2Cl)sc2c1CCC(C(C)(C)C)C2 (stereo unspecified) | inconclusive: 79.4 µM [inhibitor, single point] |  |
| Fc1ccc(C(Nc2ccc(Cl)c(C(F)(F)F)c2)c2nnc(-c3ccccc3)o2)cc1 (stereo unspecified) | inconclusive: 79.4 µM [inhibitor, partial curve, poor fit] |  |
| CCOc1ccc(C(=O)Nc2sc(C)c(CC)c2C#N)cc1 |  | inactive: -5.49% |
| CN(C)c1ccc(C(CNC(=O)c2ccccc2F)N2CCc3ccccc32)cc1 (stereo unspecified) | inconclusive: 79.4 µM [inhibitor, single point] |  |
| CC1Cc2ccccc2N1S(=O)(=O)c1ccccc1F (stereo unspecified) | inconclusive: 89.1 µM [inhibitor, single point] |  |
| CCCCNc1nc2c(S(=O)(=O)c3ccc(Cl)cc3)nnn2c2ccsc12 | inconclusive: 100 µM [inhibitor, single point] |  |
| CCOc1ccc(NC(=O)Cc2ccc(NC(=O)N3CCCCc4ccccc43)cc2)cc1 | inconclusive: 89.1 µM [inhibitor, single point] |  |
| N#Cc1ccc(COc2ccc(Cl)cc2Br)cc1 |  | inactive: -9.19% |
| O=C(CN1CCCc2c(F)cc(F)cc21)Nc1cccc2nsnc12 | inconclusive: 56.2 µM [inhibitor, partial curve, poor fit] |  |
| COc1ccc(C2=C(N3CCN(c4cc(Cl)ccc4C)CC3)c3ccccc3C2=O)cc1 | inconclusive: 79.4 µM [inhibitor, partial curve, poor fit] |  |
| COC(=O)C1=C(C)OC(N)=C(C#N)C1c1ccc(-c2ccccc2)cc1 (stereo unspecified) |  | inactive: -3.81% |

| Structure (SMILES) | Potency | activity change, negative = inhibition |
| --- | --- | --- |
| CC(=O)c1cc(-c2ccc(F)cc2)n(CC(=O)NCc2ccc(C)cc2)c1C | inconclusive: 100 µM [inhibitor, single point] |  |
| CC(C)(C)c1ccc(C(=O)COC(=O)c2ccc3ccccc3n2)cc1 | inconclusive: 89.1 µM [inhibitor, single point] |  |
| CCc1cccc(NC(=O)c2c(C)oc3ncnc(N4CCCCC4)c23)c1 | active: 89.1 µM |  |
| CCOC(=O)N1CCc2c(sc(NCc3cccs3)c2C(=O)Nc2cc(OC)ccc2OC)C1 | inconclusive: 44.7 µM [inhibitor, partial curve, poor fit] |  |
| CCc1ccccc1N1CC(c2nc3ccccc3n2CC(C)C)CC1=O (stereo unspecified) | inconclusive: 89.1 µM [inhibitor, single point] |  |
| CCC(=O)Nc1ccccc1-c1nc2ccccc2n(C(CC)C(=O)Nc2cccc(C(C)=O)c2)c1=O (stereo unspecified) | inconclusive: 89.1 µM [inhibitor, single point] |  |
| CCS(=O)(=O)N1CCc2cc(C(=O)Nc3cc(C)cc(C)c3)ccc21 | inconclusive: 79.4 µM [inhibitor, partial curve] |  |
| COc1ccc(NC(=O)CN2C(=O)C(=O)c3ccccc32)c(OC)c1 | inconclusive: 100 µM [inhibitor, single point] |  |
| O=C(CN1C(=O)COc2ccc(Cl)cc21)Nc1cccc(C(=O)O)c1 | inconclusive: 100 µM [inhibitor, partial curve, poor fit] |  |
| CCSc1nnc(-c2nn(C)c3c2CN(S(=O)(=O)c2ccc4c(c2)CCC4)CC3)n1C | inconclusive: 89.1 µM [inhibitor, single point] |  |
| COC(=O)C(C#N)c1nc2ccccc2nc1NC1CC1 (stereo unspecified) |  | inactive: 0.92% |
| COc1ccc(C(C)C)cc1S(=O)(=O)NCCc1c(C)[nH]c2c(Cl)cccc12 | inconclusive: 35.5 µM [inhibitor, full curve] |  |
| Cc1nn(C)c2c1c(C(F)(F)F)cc(=O)n2CC(=O)Nc1ccc(F)cc1F | inconclusive: 100 µM [inhibitor, single point] |  |
| Cc1cccc(COC(=O)C2=NN(C3CCS(=O)(=O)C3)C(=O)CC2)c1 (stereo unspecified) |  | inactive: -1.63% |
| O=C(/C(Br)=C/Nc1ccc(Cl)c(Cl)c1)C(F)(F)F |  | inactive: -7.15% |
| CC(C)(C)C1CCc2c(sc(NC(=O)c3cc(-c4ccc(F)cc4)on3)c2C#N)C1 (stereo unspecified) | inconclusive: 100 µM [inhibitor, partial curve, poor fit] |  |
| CCCCN(C)c1ccc(-c2n[nH]c(=O)c3ccccc23)cc1[N+](=O)[O-] | active: 89.1 µM |  |
| Cc1cccc(N2CCN(C(=O)c3cc4ccc5cccnc5c4[nH]3)CC2)c1C | inconclusive: 79.4 µM [inhibitor, partial curve] |  |
| COc1cc(OC)c(NC(=O)C(CC(C)C)N2Cc3ccccc3C2=O)cc1Cl (stereo unspecified) | inconclusive: 79.4 µM [inhibitor, partial curve, poor fit] |  |
| CC(C)(C)NC(=O)c1cnn(-c2ccccc2)c1C1CCN(C(=O)OC(C)(C)C)CC1 | inconclusive: 89.1 µM [inhibitor, single point] |  |
